Laboratory results from the supplement of paper PMC10126150.
Sequences with one replicate were seen in a single cluster, so their values are uncertain.

Tested on: ATP
Experiment: switch fluorescence ratio, 500 uM ATP over buffer (Cy3 cluster intensity, sum of 5 cycles each) (fold (ratio)); higher = stronger signal-on switching upon ATP binding; sequences stand for … in TCGTCGGCAGCGTCAGATGTGTATAAGAGACAGTTTTTTTTTTTTTTTTTTTTTTTTT…TC
Conditions: aptamer strand: ATP DNA aptamer (quencher-CACCTGGGGGAGTATTGCGGAGGAAGG + anchor), 100 nM annealed; ATP concentration: 500 uM; one replicate
How it was run: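 The fluorescence ratio divides summed target-cycle Cy3 intensity by summed buffer-cycle Cy3 intensity for each cluster and is averaged per switch-domain sequence. Cy3-labelled switching-strand clusters on a modified Illumina MiSeq flow-cell were annealed to 100 nM quencher-labelled ATP aptamer, then imaged in selection buffer and again after 15 min with 500 uM ATP at 22 °C. Five such cycles were run, with NaOH stripping and re-annealing between them, and clusters outside 100-1000 RFU were excluded.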
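Note: ATP exposure 15 min at 22 °C before imaging.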

| Sequence | switch fluorescence ratio |
| --- | --- |
| GAGGTTAACT | 0.996 |
| ACGTAACGGT | 1.24 |
| TTCTCGGTCG | 0.989 |
| CCCAAGTAAA | 1.01 |
| TCGAGAGATG | 0.973 |
| CCGTAGCTTG | 3.87 |
| AGTCAAAAGG | 1.04 |
| GCTTAATCTT | 1 |
| TTAAACAGAG | 1.01 |
| GAGCCTCGTG | 1.03 |
| TCAGGGCTTC | 1.07 |
| TGGCACCGTG | 0.981 |
| ATGGAGGCA | 1.03 |
| TGCTGTTTTG | 0.97 |
| TCGGCAGACT | 1.08 |
| TAAACAGTGG | 0.947 |
| GTGCCCCGGA | 0.988 |
| TGCCTCAATC | 1.37 |
| TGACAATGTA | 1.02 |
| GGCTCCTATT | 0.978 |
| ACCATGGCCA | 1.02 |
| CAAAATGAGG | 0.989 |
| GAGTGCTGAC | 0.969 |

| Sequence | switch fluorescence ratio |
| --- | --- |
| TAACAGGAGA | 1.02 |
| GTGACCCGGC | 1.06 |
| AGTCAAGTTC | 1.02 |
| GACCTGCTAT | 1.09 |
| GATGAGTTTT | 1.02 |
| CGCGTAGGGA | 1.02 |
| CGGGCCCCAG | 1.24 |
| CCTGAGCATA | 3.48 |
| TTGCAATAGG | 0.991 |
| TGCAACCTGG | 1.02 |
| AGACTCAGAG | 0.963 |
| TACAGGCTGG | 1.02 |
| GGGCTAGGTC | 0.988 |
| CTACCGACAT | 1.31 |
| ATGTACGTAT | 1.02 |
| ATGGGCGAAG | 0.996 |
| AGCATGAGCG | 0.856 |
| GCAGGGGTGC | 1.01 |
| GAATAGACAC | 1.03 |
| AAACACTCTC | 1.03 |
| ATACTAGATT | 0.985 |
| GGATGCTGCT | 1.42 |
| TAAGATTAAC | 1.04 |

| Sequence | switch fluorescence ratio |
| --- | --- |
| AGGCGATATC | 0.989 |
| TGGGTC | 0.971 |
| TTCTGGGA | 1.02 |
| CGTAGATCAT | 0.995 |
| CACGCGGCCG | 1.05 |
| ATCGCGTGCA | 0.994 |
| CCTAGGGGAT | 2.6 |
| ACCGCCGTGT | 1.06 |
| TGGGGAGCTA | 1.07 |
| CTCTCGATTG | 1.05 |
| CTGGCGAACC | 1.02 |
| ATACCCCGCA | 2.01 |
| GATATACTA | 0.993 |
| TGAGATACGT | 0.968 |
| GCCAGTAGTT | 0.965 |
| GGTAGTTGTC | 0.994 |
| AGGTTAGCAC | 1 |
| TAATGAAAGG | 0.992 |
| TGGGACAAAA | 1 |
| AATCGAAACA | 1 |
| TTGGCTTTCT | 1.01 |
| TTGGGGGAG | 1.01 |
| TTGTATTGAT | 1.01 |

| Sequence | switch fluorescence ratio |
| --- | --- |
| GGTTCAGCA | 1.02 |
| ACTATCTTGT | 0.982 |
| AGTATTTAAG | 1.04 |
| CGAACGGCGG | 1.01 |
| ACAGTTCTGC | 1.02 |
| ATCTTTATCT | 1.05 |
| AGCTACTTAC | 1.62 |
| CTGAGGGAGG | 0.983 |
| GGGGTCCTAC | 0.971 |
| AAGTATCGTC | 0.957 |
| TCGCTGGGTG | 1.26 |
| GGGTGTT | 1.04 |
| GTCATAGACA | 1.02 |
| ATTACATCTT | 1.01 |
| TTTGAATTGT | 1.03 |
| CCCGGGGCGC | 0.969 |
| TCCGATAGGA | 1.01 |
| GAATTCTCTA | 0.973 |
| GTTCATAGAA | 1.04 |
| CTTACGCCGT | 1.01 |
| CATTTGTTTG | 0.969 |
| CATGCACAGT | 1.05 |
| TAAATGCAGG | 1.05 |

| Sequence | switch fluorescence ratio |
| --- | --- |
| GTGATAGCTG | 0.938 |
| AGGGATTATC | 0.958 |
| CTCGATCTGG | 1.02 |
| GTTTAGGGAG | 0.991 |
| AGTGAACGGT | 1.04 |
| GGCACGTTGC | 1.05 |
| ACAGAGTCGC | 1.06 |
| CGCGTTGATG | 0.979 |
| ACGTTTGGCG | 0.945 |
| TATCGACGAT | 1.04 |
| TTGCCCGCGT | 0.996 |
| ATGGCTCAGT | 0.972 |
| AATTCCATGG | 1.01 |
| TCTATATCGA | 0.989 |
| ATTAAGTAGG | 1.02 |
| ATCCCTGGAC | 1.06 |
| ACTTTCGTTG | 0.973 |
| GGGTAGGGA | 0.962 |
| AGAGAGTGTT | 0.979 |
| AAGAGCCGAG | 1.01 |
| TGAGTAGGTT | 0.99 |
| TTGCGTGGCT | 0.958 |
| TACTCCCCAC | 2.76 |

| Sequence | switch fluorescence ratio |
| --- | --- |
| TATTACGGGC | 0.962 |
| ATAGATTGA | 0.972 |
| AAGTAAGTAA | 0.932 |
| TACCAGGGTT | 1.21 |
| CCCGGACGTC | 1.04 |
| TTAGGAAAG | 0.977 |
| ACGGTGCATT | 1.09 |
| TGGTTCTAAA | 0.988 |
| AAATAGATAG | 0.98 |
| TTAAGGTCTG | 0.976 |
| GGACATT | 0.972 |
| GTGAATTGGA | 1.01 |
| AAATTTTGCC | 0.946 |
| TAGAAGTACG | 1.11 |
| TGAGGCTTTT | 0.989 |
| AGTGGGCAAT | 1.16 |
| CTCGACTTCT | 0.971 |
| TGTGTTAATT | 0.998 |
| CATTAGTCGG | 0.992 |
| CGATGTCACA | 1.05 |
| GAAACAGTGG | 1.02 |
| AGATTAACAC | 0.998 |
| TTGTACCAGC | 1.06 |

| Sequence | switch fluorescence ratio |
| --- | --- |
| CTGGCCCGTG | 1.03 |
| CGTGATGTGG | 1.03 |
| TCCAGCGTTG | 1.02 |
| AGATGATTGA | 1.01 |
| CTGATGTCCT | 0.98 |
| TTTGAAGCCA | 2.47 |
| AGTTTGGCTA | 0.989 |
| TAGGCTCGTT | 1 |
| TTTCAGCGAC | 2.29 |
| AAGTTAGAT | 0.995 |
| TAAAGTGGCA | 0.991 |
| TTGTTTCGAA | 0.986 |
| AGCATAGTGG | 1.02 |
| AATGGGTGCG | 0.993 |
| ATTCGTTTGA | 1.05 |
| ACGTCTAGTA | 1 |
| TAGCCTTCGT | 1.15 |
| AACGGCAGCG | 1.06 |
| GCTAGGTGTT | 0.994 |
